Measured values: article PMC4336329 (PLoS ONE, 2015)
About 14,000 (4.5%) of roughly 310,000 compounds showed an effect of 50% or more. Effects have a minus sign here. Some of the results follow.

Biological target: human ether-à-go-go-related gene (hERG) potassium channel (human, UniProt Q12809)
Test: primary screen, population patch clamp on CHO cells stably expressing hERG
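Note: peak tail current of the secondary pulse compared with the same well before compound.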

Sequence of human ether-à-go-go-related gene (hERG) potassium channel (Q12809 whole entry, looked up): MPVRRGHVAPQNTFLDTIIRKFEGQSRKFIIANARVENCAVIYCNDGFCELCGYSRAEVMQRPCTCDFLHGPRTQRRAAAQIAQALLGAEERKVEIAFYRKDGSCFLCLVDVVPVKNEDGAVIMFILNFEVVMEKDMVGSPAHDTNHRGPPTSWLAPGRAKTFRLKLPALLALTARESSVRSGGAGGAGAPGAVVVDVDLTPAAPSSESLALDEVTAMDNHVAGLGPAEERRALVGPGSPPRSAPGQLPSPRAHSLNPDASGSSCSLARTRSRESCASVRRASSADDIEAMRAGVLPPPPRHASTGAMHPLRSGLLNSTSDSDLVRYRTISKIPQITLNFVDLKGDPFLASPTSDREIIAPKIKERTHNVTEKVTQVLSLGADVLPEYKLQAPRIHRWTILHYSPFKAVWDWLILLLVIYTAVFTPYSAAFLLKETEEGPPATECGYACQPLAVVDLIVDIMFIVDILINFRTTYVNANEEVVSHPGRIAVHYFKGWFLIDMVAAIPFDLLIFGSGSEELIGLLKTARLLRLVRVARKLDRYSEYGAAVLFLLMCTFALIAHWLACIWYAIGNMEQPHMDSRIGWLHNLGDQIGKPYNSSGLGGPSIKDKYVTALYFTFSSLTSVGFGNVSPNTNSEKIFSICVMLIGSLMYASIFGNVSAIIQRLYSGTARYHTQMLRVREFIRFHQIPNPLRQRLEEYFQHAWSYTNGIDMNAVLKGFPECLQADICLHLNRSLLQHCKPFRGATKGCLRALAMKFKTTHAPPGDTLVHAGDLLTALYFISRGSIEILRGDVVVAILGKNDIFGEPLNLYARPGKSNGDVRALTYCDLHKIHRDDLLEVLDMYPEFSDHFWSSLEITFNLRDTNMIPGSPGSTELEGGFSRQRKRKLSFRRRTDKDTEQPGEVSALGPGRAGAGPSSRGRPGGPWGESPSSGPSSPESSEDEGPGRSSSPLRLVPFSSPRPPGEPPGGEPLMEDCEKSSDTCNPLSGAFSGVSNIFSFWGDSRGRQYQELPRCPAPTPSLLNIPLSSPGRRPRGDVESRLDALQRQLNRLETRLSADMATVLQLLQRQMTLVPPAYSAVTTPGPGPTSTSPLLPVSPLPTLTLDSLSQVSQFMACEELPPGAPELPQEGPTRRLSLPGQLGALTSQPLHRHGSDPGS

| Compound | hERG current change (%, negative = inhibition) at 10uM [%] |
| --- | --- |
| Cc1ccc(NC(=O)C(=O)N2CCCC2)cc1Cl | 19.5 |
| O=C(NCCNC(=O)c1cc(OCC(F)(F)F)ccc1OCC(F)(F)F)Nc1cccc(C(F)(F)F)c1 | -21.8 |
| O=C(Nc1cccc([N+](=O)[O-])c1)Nc1ccc2c(c1)CCC2 | 14.4 |
| CN(C)S(=O)(=O)c1ccc(Cl)c(NC(=O)COC(=O)CN2C(=O)C3CCCCC3C2=O)c1 (stereo not shown) | 6.74 |
| O=C(O)c1ccc(COc2ccccc2/C=C2/NC(=O)N(c3cccc(Cl)c3)C2=O)cc1 | 13 |
| CCOc1ccccc1CNC(=O)C1CCC(=O)N1C(C)C (stereo not shown) | 1.56 |
| COc1cc(C(=O)N[C@H](C(=O)NC(C)C23CC4CC(CC(C4)C2)C3)C(C)C)cc(OC)c1OC (stereo partly shown) | 7.07 |
| Cc1ccc(-n2c(=S)[nH]c3c(oc4ccccc43)c2=O)cc1 | 14.8 |
| Cc1cccc(C)c1NC(=O)c1ccccc1C(=O)O | 11.5 |
| CCOC(=O)C1=C(C)NC(=O)NC1c1ccc(-c2ccc(F)cc2)o1 (stereo not shown) | -1.72 |
| CN(C)S(=O)(=O)c1ccc(/C(O)=C2/C(=O)C(=O)N(Cc3cccnc3)C2c2cccs2)cc1 (stereo not shown) | 5.83 |
| Fc1ccccc1Cn1nnc2c(NCc3ccccn3)ncnc21 | -11.2 |
| CC(C)[C@H](NS(=O)(=O)c1ccc(Cl)cc1)C(=O)OCC(=O)c1c(N)n(C)c(=O)n(C)c1=O | -39.9 |
| O=C(CN(c1ccc(F)cc1)S(=O)(=O)c1ccc2c(c1)OCCO2)N1CCOCC1 | -6.5 |
| CS(=O)(=O)c1ccc(NCC2CCCO2)c([N+](=O)[O-])c1 (stereo not shown) | 9.48 |
| CCOc1cc2c3c(c1)C1(Nc4ccccc4S1)C(=O)N3C(C)(C)CC2C (stereo not shown) | 10.4 |
| CCCc1cc(=O)oc2c3c(cc(OCC(=O)NCCCn4ccnc4)c12)OC(C)(C)CC3 | -73.9 |
| O=c1c(-c2ccccc2)cnc2n1CCS2 | -13.5 |
| Cc1ccc(S(=O)(=O)NC(=NC2CCCCC2)c2ccccc2)cc1 | -55.2 |
| Fc1cccc(Nc2ncnc3c2cnn3-c2ccccc2)c1 | 12.1 |
| Cc1ccc2[nH]c3c(=O)n(CC(=O)NCc4ccco4)ncc3c2c1 | 21.9 |
| Cc1cc(C)cc(N2C(N)=NC(N)=NC2c2ccccc2F)c1.Cl (stereo not shown) | 10.9 |
| CCC(=O)Nc1nnc(SCCN2CCOCC2)s1.Cl | 14.5 |
| Clc1ccc(CSc2ccc(-c3ccco3)nn2)cc1 | 19.1 |
| c1ccc(Cn2cnc3ccccc32)cc1 | 14.6 |
| COc1cccc(-c2nc(CS(=O)(=O)CC(=O)N3CCN(c4ccccn4)CC3)c(C)o2)c1 | -37.9 |
| COc1ccc(N(C(=O)C(C)C)S(=O)(=O)c2ccc(Cl)cc2)cc1 | -20.6 |
| O=C(COC(=O)c1ccc(Br)o1)Nc1ccc2[nH]c(=O)[nH]c2c1 | 9.74 |

| Compound | hERG current change (%, negative = inhibition) at 10uM [%] |
| --- | --- |
| CC(=O)c1ccc(NC(=O)Nc2ccccc2)cc1 | -2.03 |
| O=C(C(=O)N1CCCc2ccccc21)c1c[nH]c2ccccc12 | 4.5 |
| Cc1ccsc1C(=O)N1CC(=O)Nc2ccccc21 | 6.74 |
| O=C(COc1ccccc1F)N1CCc2ccccc2C1 | -25 |
| Cc1ccc(S(=O)(=O)N2CCN(C(=O)CSc3nncs3)CC2)cc1 | -6.21 |
| COc1ccccc1CN(Cc1cc2cc(C)ccc2[nH]c1=O)Cc1nnnn1CC1CCCO1 (stereo not shown) | -18.8 |
| CC(C)c1ccc(S(=O)(=O)N2CCN(C(C)C(=O)NC3CCCC3)CC2)cc1 (stereo not shown) | -75.5 |
| C=CCSc1nc(N)c(C(=O)Nc2ccccc2OC)cc1C(=O)Nc1ccccc1 | -3.02 |
| COc1ccc(C(=O)OCC(=O)c2c(N)n(C)c(=O)n(C)c2=O)cc1OC | 17.4 |
| CCOc1ccc2nc(NC(=O)CN3CCN(C)CC3)sc2c1 | -15.7 |
| COc1cccc(NC(=O)c2nn(C34CC5CC(CC(C5)C3)C4)cc2[N+](=O)[O-])c1 | -10.1 |
| O=C(c1ccc(Cl)cc1)N1CCN(S(=O)(=O)/C=C/c2ccccc2)CC1 | -54.8 |
| COCc1c(C(=O)OCC(=O)Nc2ccc(OC(F)F)cc2)oc2ccccc12 | -29.8 |
| CCOC(=O)c1c(C=O)c2ccccc2n1Cc1ccccc1F | -2.35 |
| Cl.c1ccc(-c2ccc(OCCN3CCOCC3)cc2)cc1 | 3.74 |
| O=c1c(-c2ccco2)[n+]([O-])c2ccccc2n1OCc1c(F)cccc1F | 20.5 |
| COc1ccc(-c2nnc(SCC(=O)NCCC(C)C)nc2-c2ccc(OC)c(OC)c2)cc1OC | -38.3 |
| c1ccc(Oc2nnc(-c3cccs3)c3ccccc23)cc1 | -5.87 |
| N#C/C(=C\c1cccc2ccccc12)c1nn(-c2ccccc2)c(N)c1C#N | 3.7 |
| Cc1nc(C(F)(F)F)c(C(=O)N/N=C(\N)c2ccccn2)s1 | 9.32 |
| C/C(N)=C(/C#N)C(=O)COC(=O)CCSc1ccccc1 | 13 |
| COc1ccc(N=Cc2sc3ccccc3c2Cl)cc1 | 15 |
| CCN1CCN(c2ccc(S(=O)(=O)N3CCCCC3)cc2NC(=O)/C=C/c2ccc([N+](=O)[O-])cc2)CC1 | -70.8 |
| Cl.Nc1cccc2[nH]c(C(F)(F)F)nc12 | 20.5 |
| COC(=O)c1cn(Cc2ccccn2)c(=O)c2ccccc12 | 2.37 |
| O=C(NCc1ccc(OC(F)(F)F)cc1)c1ccc2c(c1)S(=O)(=O)c1ccccc1C2=O | -0.0191 |
| O=c1[nH]c(=S)n(-c2ccccc2F)c(O)c1C=NCCN1CCNCC1 | 21.9 |
